# Data published in PubChem BioAssay (NCATS).
# The shares of active, inactive and inconclusive entries below differ from those in the screen. For some assays here: No potency is given beside an inconclusive call; the fits are too rough. The source made the active and inactive calls. Unless noted, the call rests on the fitted dose curve; in most records, active means well fitted curve in the direction sought with a large enough effect; inconclusive means small, poorly fitted or top-dose-only effect, or another doubt; inactive means no such curve, though single readings can be large; an effect the other way counts as inactive or inconclusive.
# Legend:
# [1] = biological target: Cytochrome P450 2D6 (Homo sapiens) (UniProt P10635); assay: qHTS Assay for Inhibitors and Substrates of Cytochrome P450 2D6 (AID 891);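 further: luciferin methyl ether substrate demethylated by CYP2D6 with NADPH regeneration; potency means the concentration at half of the fitted maximal effect; nearly all actives have a fitted effect of over 60% in size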
# UniProt P10635, sequence (P10635 whole entry, looked up): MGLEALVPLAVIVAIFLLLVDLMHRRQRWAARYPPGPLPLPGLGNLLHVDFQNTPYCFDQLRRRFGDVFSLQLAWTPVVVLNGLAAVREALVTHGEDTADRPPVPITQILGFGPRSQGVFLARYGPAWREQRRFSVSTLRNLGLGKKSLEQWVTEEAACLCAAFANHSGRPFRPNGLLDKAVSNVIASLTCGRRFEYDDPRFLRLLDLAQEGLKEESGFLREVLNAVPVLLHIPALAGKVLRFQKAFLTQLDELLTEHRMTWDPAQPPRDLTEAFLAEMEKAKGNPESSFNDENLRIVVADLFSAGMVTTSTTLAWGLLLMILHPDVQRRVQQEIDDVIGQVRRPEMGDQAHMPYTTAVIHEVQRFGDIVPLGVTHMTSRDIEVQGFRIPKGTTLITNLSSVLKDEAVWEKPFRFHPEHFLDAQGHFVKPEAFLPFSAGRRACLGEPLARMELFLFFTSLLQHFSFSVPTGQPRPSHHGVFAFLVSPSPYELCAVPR
# Summary of the method: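 Luminescent read-out of luciferin formed by 5 nM human CYP2D6 demethylating 30 uM Luciferin-ME EGE (Km level) over 60 min at room temperature after NADPH regeneration addition. Data normalized to full inhibition by 1.43 uM quinidine.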
# [2] = biological target: Ubiquitin carboxyl-terminal hydrolase 1 (Homo sapiens) (UniProt O94782); assay: Inhibitors of USP1/UAF1: Pilot qHTS (AID 504865);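 further: rhodamine fluorescence freed from ubiquitin-rhodamine substrate followed over time; potency means the concentration at half of the fitted maximal effect; nearly all actives have a fitted effect of over 35% in size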
# UniProt O94782, sequence (O94782 whole entry, looked up): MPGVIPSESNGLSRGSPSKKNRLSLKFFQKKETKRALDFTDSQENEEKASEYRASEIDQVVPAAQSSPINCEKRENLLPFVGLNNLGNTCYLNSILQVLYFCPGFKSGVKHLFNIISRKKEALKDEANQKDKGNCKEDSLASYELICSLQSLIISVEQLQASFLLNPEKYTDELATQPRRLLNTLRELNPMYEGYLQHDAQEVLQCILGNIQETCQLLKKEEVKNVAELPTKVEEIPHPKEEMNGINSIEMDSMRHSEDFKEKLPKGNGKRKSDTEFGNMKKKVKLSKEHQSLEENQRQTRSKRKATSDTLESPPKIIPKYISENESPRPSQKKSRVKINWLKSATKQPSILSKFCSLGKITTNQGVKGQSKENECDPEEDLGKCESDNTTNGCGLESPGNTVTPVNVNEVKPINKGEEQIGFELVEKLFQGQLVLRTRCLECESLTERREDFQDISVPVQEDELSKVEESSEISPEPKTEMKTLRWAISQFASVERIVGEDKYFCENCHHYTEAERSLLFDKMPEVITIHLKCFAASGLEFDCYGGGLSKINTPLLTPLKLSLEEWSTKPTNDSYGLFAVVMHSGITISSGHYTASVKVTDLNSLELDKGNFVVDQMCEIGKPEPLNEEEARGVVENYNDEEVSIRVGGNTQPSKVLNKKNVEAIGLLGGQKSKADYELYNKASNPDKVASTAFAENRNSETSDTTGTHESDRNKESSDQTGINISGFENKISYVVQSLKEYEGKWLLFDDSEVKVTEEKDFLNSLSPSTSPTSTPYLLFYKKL
# Summary of the method: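 USP1/UAF1 complex (1nM) preincubated with compound 15 min at room temperature, then Ub-Rho substrate (150nM final) added. Fluorescence read kinetically at 480/540 nm, 6 reads every 60 seconds. Buffer: 50mM HEPES pH 7.8, 0.5mM EDTA, 0.1 mg/ml BSA, 1mM TCEP, 0.01% Tween-20.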
# [3] = qHTS Assay for Identification of Small Molecule Antagonists for NFkB Signaling Pathway (AID 895; active means well fitted inhibition curve with a large enough effect in the signal ratio, with a control signal flat, not every such curve was filed as active; inconclusive means small, poorly fitted or top-dose-only effect, or effect the other way, or a change in a side signal; the % refers to the signal ratio; further: on the % scale 0 is the no-effect control and ±100 the full control effect); details: NFkB beta-lactamase reporter cells, FRET ratio 460/530; activity change, negative = inhibition: at 38.3 µM (top of the series) unless noted
# Summary of the method: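 Beta-lactamase reporter read-out (460 and 530 nm emission ratio, 405 nm excitation, 2 hrs substrate loading RT) after 5 hr stimulation with 10 pM TNF alpha in compound-treated NFkB-bla ME-180 cells in low-serum medium.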
# [4] = qHTS Assay for Identification of Small Molecule Antagonists for Thrombopoietin (TPO) Signaling Pathway (AID 918); details: TPO-dependent cell signaling reporter, antagonist mode; activity change, negative = inhibition: at 38.5 µM (top of the series); further: nearly all actives have a fitted effect of over 60% in size
# Summary of the method: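 Inhibition read as reduced luciferase luminescence after 24 h at 37 C in IL-3-deprived Ba/F3 cells carrying human TPO receptor and GPIIb-promoter reporter, stimulated with 26 pM TPO (final, its EC50) alongside compound.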
# [5] = biological target: Muscarinic acetylcholine receptor M1 (Rattus norvegicus) (UniProt P08482); assay: qHTS Assay for Antagonists of Acetylcholine Muscarinic M1 Receptor: Measurement of IP-One Response (AID 944); further: potency means the concentration at half of the fitted maximal effect; nearly all actives have a fitted effect of over 75% in size
# UniProt P08482, sequence (P08482 whole entry, looked up): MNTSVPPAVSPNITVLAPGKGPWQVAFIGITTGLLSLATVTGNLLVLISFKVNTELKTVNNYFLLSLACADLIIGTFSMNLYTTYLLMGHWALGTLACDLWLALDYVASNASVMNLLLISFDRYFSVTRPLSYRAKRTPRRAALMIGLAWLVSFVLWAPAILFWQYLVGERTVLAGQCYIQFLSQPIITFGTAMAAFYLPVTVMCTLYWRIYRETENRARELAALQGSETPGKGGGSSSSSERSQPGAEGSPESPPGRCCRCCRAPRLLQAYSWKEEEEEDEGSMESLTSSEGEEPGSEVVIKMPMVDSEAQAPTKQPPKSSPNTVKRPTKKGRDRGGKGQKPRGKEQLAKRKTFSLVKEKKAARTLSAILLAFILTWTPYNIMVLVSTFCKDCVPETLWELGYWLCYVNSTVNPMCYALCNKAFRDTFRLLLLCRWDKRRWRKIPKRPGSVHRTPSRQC
# Tags describe the fitted curve by direction and shape.
structure (smiles),measurement,setting,value
Cc1ccc(S(=O)(=O)O[C@H]2CN3CCC2CC3)cc1,Potency,[1],"inconclusive [inhibitor, partial curve]"
Clc1ccc(CS[C@@H](Cn2ccnc2)c2ccc(Cl)cc2Cl)cc1,Potency,[2],"inconclusive [inhibitor, partial curve]"
CC(C)n1cc2c3c(cccc31)[C@@H]1C[C@H](C(=O)O[C@@H](C)[C@H](C)O)CN(C)[C@H]1C2,Potency,[3],inactive
same,"activity change, negative = inhibition",[4],inconclusive: -17.2% [phenotype inactive]
same,Potency,[5],"inconclusive [inhibitor, partial curve, poor fit]"
